# Data as given in PubChem BioAssay AID1508642 (National Center for Advancing Translational Sciences (NCATS), 2021).
# Among all 43,000 compounds or so, about 200 (0.47%) were called active. About 12% were inconclusive and are not listed. The call rests on the fitted dose curve; in most records, active means well fitted cell-killing curve with a large enough effect; inconclusive means small, poorly fitted or top-dose-only effect, or effect the other way; inactive means flat fitted curve, though single readings scatter. Some of the results follow.
# Assay: Cell viability qHTS assay in S16 Pmp22-F2sN cells; further: nearly all actives have a fitted effect of over 65% in size
# Settings: S16 Pmp22-F2sN Schwann cells (luciferase reporters placed in the Pmp22 gene) viability, CellTiter-Glo, 24 h; series mostly up to 57.5 µM; activity change, negative = cytotoxicity: at the top concentration
# Summary of the method: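 CellTiter-Glo counter-screen, qHTS, 1536-well. Cells: S16(c9) Pmp22-F2sN, 500-1,000/well in DMEM + 10% FBS. Cpd 23 nL pin transfer, 24 h, 37C/5% CO2. Read: luminescence, CCD imager.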
# On the % scale 0 is the no-effect control and ±100 the full control effect.
row,Compound,"activity change, negative = cytotoxicity"
1,CCOCCCNC(=O)CCc1nnc2ccc(N3CCN(c4cccc(OC)c4)CC3)nn12,inactive: -8.78%
2,Cc1ccc(NCc2nnc3n2CCCCC3)cc1Cl,inactive: -3.2%
3,Cc1ccc(-c2ccc(=O)n(C(C)C(=O)Nc3ccccc3Cl)n2)cc1C (stereo not given),inactive: 10.2%
4,COc1cccc(NC(=O)c2cn(C3CCCCC3)c(=O)c3c2c2ccccc2n3C)c1,inactive: -2.3%
5,CC1CCc2nc3ncn(CC(=O)Nc4cccc(C#N)c4)c(=O)c3cc2C1 (stereo not given),inactive: -3.01%
6,COc1ccc(S(=O)(=O)N(CC(=O)N2CCC(C)CC2)c2ccc(C)cc2)cc1,inactive: 16.1%
7,COC(=O)c1ccc(Cn2c(SCc3cccc(C)c3)nc3ccncc32)cc1,inactive: -3.85%
8,Cc1cc(C)c(/C=C/c2onc(C)c2S(=O)(=O)N2CCC(C(=O)N3CCN(c4ccccc4)CC3)CC2)c(C)c1,inactive: 0.781%
9,CCOC(=O)c1sc2ncn(CC(=O)Nc3ccc(C)cc3C)c(=O)c2c1C,inactive: -1.69%
10,COc1ccc(C(=O)NCC(c2cccs2)S(=O)(=O)c2ccc(C)cc2)cc1 (stereo not given),inactive: 3.19%
11,COc1cc(Cl)c(C)cc1NC(=O)CN1c2ccccc2S(=O)(=O)c2ccccc21,inactive: 20.6%
12,CCCCn1c(CNC(=O)c2ccc(OC)cc2)nnc1SCC(=O)Nc1ccccc1,inactive: 0.298%
13,Cc1ccc(CNC(=O)CCC(=O)N2CC(C)Sc3ccccc32)cc1 (stereo not given),inactive: -6.73%
14,COc1ccc(-c2cc(C(C)=O)c(C)n2CCC(=O)NCc2ccc(F)cc2)cc1,inactive: 1.28%
15,Cc1ccc(NC(=O)c2cc3c(=O)[nH]c4ccccc4c3n2C)cc1F,inactive: 11.7%
16,CCOC(=O)c1cccc(NC(=O)CCCn2c(C)c3cnn(-c4ccccc4)c(=O)c3c2C)c1,inactive: -0.155%
17,COc1cc(C2CC(=O)Nc3c2c(=O)n(C)c(=O)n3C)cc(OC)c1OC (stereo not given),inactive: -7.22%
18,CCOC(=O)c1c(S(=O)(=O)NCC(=O)N2CCN(c3ccccc3OC)CC2)c(C)n(C)c1C,inactive: 0.19%
19,CC(=O)c1cccc(NS(=O)(=O)c2c(C)nc3sc(C)cn3c2=O)c1,inactive: -22.6%
20,COc1ccc(CCNC(=O)NCc2noc3ccc(C)cc23)c(OC)c1,inactive: 1.16%

row,Compound,"activity change, negative = cytotoxicity"
1,CCN(CC)c1cc2c(cc1F)c(=O)c(S(=O)(=O)c1ccccc1)cn2Cc1ccccc1,inactive: -16.5%
2,Cc1ccc2nc(N(CCCN(C)C)C(=O)c3ccc(Br)s3)sc2c1,inactive: -9.72%
3,CCCOc1cccc(C(=O)N(Cc2cc(OC)c(OC)c(OC)c2)C2CCS(=O)(=O)C2)c1 (stereo not given),inactive: -12.5%
4,Cc1ccc(OCCn2nnc3sc4c(c3c2=O)CCC(C(C)(C)C)C4)cc1 (stereo not given),inactive: 10.3%
5,COc1ccc(-c2noc(N3CCC(C(=O)Nc4ccc(C)c(F)c4)CC3)n2)cc1OC,inactive: 12%
6,COc1ccc(C2=Nc3ccc(C)cc3NC(c3ccc(Cl)cc3)=N2)cc1,inactive: -5.15%
7,Cc1ccc(Cl)cc1N1C(=O)N(Cc2ccc(C#N)cc2)c2ccccc2S1(=O)=O,inactive: 8.73%
8,COc1ccc(Cl)cc1NC(=O)CCCn1c(C)c2cnn(-c3ccccc3)c(=O)c2c1C,inactive: -27.2%
9,COc1ccc(CNC(=O)c2cccc(NC(=O)N3CCSc4ncccc43)c2)cc1,inactive: 0.86%
10,CCCCNC(=O)CSc1nc2ccccc2nc1Cc1ccc(Cl)cc1,inactive: -0.27%
11,COc1ccc(NC(=O)CCNS(=O)(=O)c2cccc3nsnc23)cc1OC,inactive: -0.0248%
12,COc1cccc(Cn2c(=O)n(-c3ccc(Br)cc3F)c(=O)c3sc4ccccc4c32)c1,inactive: 3.36%
13,COc1cc(OC)c(NC(=O)Nc2ccccc2OCc2cc(=O)n3cc(C)ccc3n2)cc1Cl,inactive: 12%
14,COc1ccc(CCNC(=O)CCc2c(C)nc3nc(C)nn3c2C)cc1OC,inactive: -5.7%
15,CCc1ccc(S(=O)(=O)c2nnn3c2nc(NC2CCCC2)c2sccc23)cc1,inactive: 3.15%
16,COc1ccc(C)cc1NC(=O)CCS(=O)(=O)c1ccc2c(c1)CC(=O)N2C,inactive: -7.4%
17,COCCNC(=O)c1cc(Sc2ccc(F)cc2F)nc2ccccc12,inactive: 1.77%
18,CC1=C(C(=O)OCC2CCCCC2)C(c2c(F)cccc2Cl)CC(=O)N1 (stereo not given),inactive: 21.3%
19,COc1ccc(Cn2c(SCc3ccc(C(=O)NCc4ccccc4F)cc3)nc3cccnc32)cc1,inactive: 8.07%
20,Cc1cccc(-n2c(=O)c3c(c4cc(C)ccc4n3C)n(Cc3ccccc3F)c2=O)c1,inactive: 3.73%

row,Compound,"activity change, negative = cytotoxicity"
1,COc1ccc(-n2ccn(Cc3ccc(C)cc3)c(=O)c2=O)cc1OC,inactive: 2.82%
2,O=C(c1ccc2c(c1)N(Cc1ccc(F)cc1)C(=O)c1ccccc1S2(=O)=O)N1CCC(Cc2ccccc2)CC1,inactive: 0.259%
3,O=C(CSc1ccc2ccccc2n1)Nc1nsc(-c2ccc(Cl)cc2)n1,inactive: 6.64%
4,COc1ccc(NC(=O)CN(C)S(=O)(=O)c2ccc3[nH]c4c(c3c2)CCCC4)cc1Cl,inactive: -27.6%
5,CC(=O)N1c2nc(-c3ccco3)nn2C2(CCCCC2)[C@@H]2CCCC[C@@H]21,inactive: -4.68%
6,COc1cc(C(=O)Nc2ccc(OCc3cc(=O)n4cc(C)sc4n3)cc2)cc(OC)c1OC,inactive: 6.34%
7,O=C(NCCc1ccccc1)c1c[nH]c2ccc(S(=O)(=O)Nc3ccccc3F)cc2c1=O,inactive: -7.13%
8,Cc1ccccc1NC(=O)CSc1nc2c(oc3ccccc32)c(=O)n1-c1ccccc1F,inactive: -0.506%
9,CC1CCN(C(=O)c2cc(-c3ccc(Cl)cc3)on2)CC1,inactive: 23.8%
10,CCOC(=O)c1sc(NC(=O)COc2ccccc2Cl)c(C(=O)OCC)c1C,inactive: 13.4%
11,O=C(Nc1ccc(O)c(-c2nc3ccccc3o2)c1)c1ccco1,inactive: 8%
12,COc1ccccc1N1CCN(C(=O)c2c3c(nc4ccccc24)C(=O)N(C2CCCCC2)C3)CC1,inactive: 1.25%
13,COc1ccc(-c2nc(CNS(=O)(=O)c3ccc(F)cc3)cs2)cc1,inactive: -22.3%
14,CCCNC(=O)CN1C(=O)c2cccnc2Sc2ccccc21,inactive: 3.12%
15,Cc1cccc(NC(=O)CSc2nc(C)c(Cc3ccccc3)c(=O)[nH]2)c1,inactive: 1.32%
16,COc1cc(OC)cc(-n2c(=O)c3ccccc3n(CC(=O)NCCc3ccc(OC)c(OC)c3)c2=O)c1,inactive: -0.524%
17,COc1ccc2cc(CNc3ccc(OC)c(OC)c3)c(=O)n(CC(=O)Nc3ccc(C)cc3)c2c1,inactive: 4.24%
18,O=C(CSc1nc2c(c(=O)[nH]1)CN(Cc1ccc3c(c1)OCO3)CC2)Nc1ccc(F)cc1,inactive: 1.59%
19,CCC(C)NC(=O)c1sc2nc(C)c(C(=O)Nc3ccc(Cl)cc3)c(-c3ccc(Br)cc3)c2c1N (stereo not given),inactive: -7.22%
20,COc1cccc(-c2nc(C(N)=O)c3c(n2)n(-c2ccc4c(c2)OCO4)c(=O)n3C)c1OC,inactive: 14.1%
